Laboratory results: publication PMC6919601, “Identification of Plasmodium dipeptidyl aminopeptidase allosteric inhibitors by high throughput screening” (PLoS ONE, 2019)
The campaign covered roughly 110,000 compounds. About 230 (0.21%) showed an effect of 50% or more. This is one part of the list.

Target: DPAP1 (Plasmodium falciparum, UniProt Q8IIJ9)
Experiment: primary screen, percent inhibition; read by cleavage of a fluorogenic dipeptide substrate; higher = more effect of the substance
Parameters: species or system P. falciparum D10 trophozoite lysates; single well
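Also: 30 min substrate incubation versus DMSO and 10 µM JCP410 controls.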

Sequence of DPAP1 (Q8IIJ9 whole entry, looked up): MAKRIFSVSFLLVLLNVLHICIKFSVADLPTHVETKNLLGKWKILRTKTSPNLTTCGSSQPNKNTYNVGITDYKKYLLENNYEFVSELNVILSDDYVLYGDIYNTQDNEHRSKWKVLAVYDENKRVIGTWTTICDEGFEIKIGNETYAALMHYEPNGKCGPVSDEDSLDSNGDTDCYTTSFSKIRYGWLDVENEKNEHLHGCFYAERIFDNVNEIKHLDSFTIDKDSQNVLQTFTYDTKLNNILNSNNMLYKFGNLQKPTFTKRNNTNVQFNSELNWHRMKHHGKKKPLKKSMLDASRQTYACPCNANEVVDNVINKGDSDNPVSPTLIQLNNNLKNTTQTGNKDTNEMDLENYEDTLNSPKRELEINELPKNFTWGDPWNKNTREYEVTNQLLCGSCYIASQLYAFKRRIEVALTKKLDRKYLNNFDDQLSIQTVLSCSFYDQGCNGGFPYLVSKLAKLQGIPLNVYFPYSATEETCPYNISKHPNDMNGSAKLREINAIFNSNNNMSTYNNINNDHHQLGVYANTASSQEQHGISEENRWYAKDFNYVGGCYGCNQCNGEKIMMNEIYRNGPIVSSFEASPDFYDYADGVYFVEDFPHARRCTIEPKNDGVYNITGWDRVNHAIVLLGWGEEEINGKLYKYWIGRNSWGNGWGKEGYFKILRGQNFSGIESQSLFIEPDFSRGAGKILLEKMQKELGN

SMILES | % Inhibition @ 10 uM [%]
CCOc1ccc(/C=C2\N=C(c3ccc(OC)cc3Cl)OC2=O)cc1 | 2.28
O=S(=O)(c1ccc2nc(O)ccc2c1)N(CCO)Cc1ccccc1 | -4.18
COc1ccc(/C=C(\NC(=O)c2ccco2)C(=O)NCCO)cc1 | 1.01
O=C1NC(=S)N(c2ccc(Cl)cc2Cl)C(=O)/C1=C/c1ccc(Cl)cc1 | 18.2
Cc1c(C(=O)NC2CCCCC2)oc2ccc(S(=O)(=O)N(C)C3CCCCC3)cc12 | 13.3
O=C(CCc1ccccc1)n1nc(-c2cccnc2)nc1NCc1ccccc1 | 0.558
Cc1ccc(C)c(-n2nnc(-c3nc(-c4ccc5c(c4)OCO5)no3)c2N)c1 | -2.15
Cc1cc(SCc2ccccc2C)n2nc(C)nc2n1 | -0.414
CC1CCN(C(=O)CN2C(=O)c3ccccc3S2(=O)=O)CC1 | 1.1
FC(F)(F)c1cccc(N2CCN(Cc3cccnc3)CC2)c1 | -5.41
CC(C)(C)OC(=O)N[C@@H](CS(=O)(=O)Cc1ccccc1)C(=O)NCC#N | -6.56
COc1cc(Cl)c(S(=O)(=O)n2cnc3cc(C)c(C)cc32)cc1Cl | -6.44
Cc1ccc(NC(=O)C2c3ccccc3C(=O)N(C)C2c2cn(C)c3ccccc23)nc1 (stereo not drawn) | 5.74
COCCNC(=O)CN1N=C(c2ccc(OC)cc2)CCC1=O | -3.58
CCCc1nnc(O)c2c1nnn2Cc1ccccc1 | -4.91
c1cnc(NC2CCCCCCC2)nc1 | -5.62
CC(O)CN(Cc1ccc(Cl)cc1)CC(C)O (stereo not drawn) | -2.34
Cc1ccc(CNC(=O)CCc2c(C)nc3c4cccnc4nn3c2C)cc1 | -0.0115
N#CCNC(=O)[C@H](CSCc1ccccc1)NC(=O)c1ccc(-c2ccccc2)cc1 | -0.214
Cc1ccc(CN2C(=O)CN(C3CCC(C)CC3)C(=O)C2c2ccc(C)cc2)cc1 (stereo not drawn) | 1.27
CNS(=O)(=O)c1cn(CC(=O)Nc2nc3ccc(C)cc3s2)cc1S(=O)(=O)NC | 10.8
Cc1ccccc1Cn1c(=O)n(C(C)C)c(=O)c2oc3ccccc3c21 | 3.8
Cc1nn(CC(=O)N2CCN(C3CCCCC3)CC2)c(=O)c2nn(-c3ccccc3)c(C)c12 | -2.68
CC(=O)c1ccc(NC(=O)c2ccccc2Cl)cc1 | -1.62

SMILES | % Inhibition @ 10 uM [%]
Cc1cccc(N(C)C(=O)c2cnoc2C)c1 | -3.45
O=C(NCc1c(O)ccc2ccccc12)c1ccccc1 | -2.66
O=C(O)C1CC=CCC1C(=O)Nc1ccc(F)cc1 (stereo not drawn) | 0.35
FC(F)Oc1ccc(Cl)cc1C1C=C(c2ccc(Br)s2)Nc2ncnn21 (stereo not drawn) | -1.48
COc1ccc(C(=O)Nc2ccc3[nH]c(O)nc3c2)cc1 | -0.0953
Cc1cc(C)c(NS(=O)(=O)c2ccc(NC(=O)c3ccccc3C(=O)O)cc2)c(C)c1 | -2.28
COc1ccccc1C(=O)Nc1ccc(Cl)c(C(F)(F)F)c1 | -7.02
CCn1c2ccccc2c2cc(CNc3ccc(F)c(Cl)c3)ccc21 | -1.56
CC1=C(C(=O)Nc2cccnc2)C(c2cccnc2)n2nc(-c3cccs3)nc2N1 (stereo not drawn) | -4.77
CC(C)CNC(=O)C1CCN(S(=O)(=O)c2ccccc2)CC1 | 6.28
CCOC(=O)CN1CCc2cc(OC)c(OC)cc2C1 | 0.605
c1ccc(CCn2c(-c3ccco3)nc3ccccc32)cc1 | -7.83
CCN(CC)C(=O)CSc1nc(-c2ccccc2Cl)nc2c1Cc1c(CO)cnc(C)c1O2 | 8.05
Clc1ccc(-c2noc(CCCOc3ccccc3)n2)cc1 | -1.42
COc1ccc(CCNC2CC(=O)N(c3ccc(C)cc3)C2=O)cc1 (stereo not drawn) | -1.07
CCCNC(=O)N1Cc2ccccc2-n2cccc2C1c1ccccc1 (stereo not drawn) | -1.32
Cc1ccccc1C(=O)Nc1ccc(CC#N)cc1 | -3.72
O=C(Nc1c(C(=O)N2CCN(CCO)CC2)cnn1-c1ccccc1Cl)c1ccco1 | -4.72
CCOc1nc(-c2ccc(C)cc2)ccc1-c1noc(CC)n1 | 2.1
NS(=O)(=O)c1ccc(CCNC(=O)c2nc(S(=O)(=O)Cc3ccccc3)ncc2Cl)cc1 | 7.04
COc1ccc(CC(=O)Nc2ccccc2F)cc1 | -0.856
Cc1cc(/C=C2\C(=N)N3N=C(C(C)C)SC3=NC2=O)c(C)n1-c1ccc(F)cc1 | 1.96
O=C1c2ccc3c4c(ccc(c24)C(=O)N1c1ccccn1)C(=O)N(c1ccccn1)C3=O | -11.6
Cc1nn(Cc2cccc(C(=O)Nc3nc4ccc(S(C)(=O)=O)cc4s3)c2)c(C)c1Cl | 0.413
